From PubChem BioAssay AID445 (National Center for Advancing Translational Sciences (NCATS), 2006)
The campaign covered roughly 110,000 compounds. About 40 (0.04%) were called active. Inconclusive results, whose numbers are uncertain, are shown with a selection of clear calls. Calls come from the whole dose curve; as a rule, active = well fitted curve in the direction sought with a large enough effect in the signal ratio (not every such curve was filed as active); inconclusive = small, poorly fitted or top-dose-only effect, or a change in a side signal; inactive = flat fitted curve, though single readings scatter; the % refers to the signal ratio. Where the call is inconclusive, the potency comes from a doubtful curve fit.

Assay: IkB Signaling;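 for IkBa stabilization activation: 0% = basal untreated cells and 100% = reference inhibitor full response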
Settings: ABC-DLBCL IkBa-CBG/CBR dual luciferase ratio (green luciferase fused to IkBa over red control in OCI-Ly3 lymphoma cells), 4 h; IkBa stabilization activation: at 57.1 µM (top of the series), scaled: untreated 0%, proteasome inhibitor 100% unless noted
Outline: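 In this assay, an IκBα–CBG68 fusion accumulates when IKK-driven degradation is blocked; native CBR normalizes for cell number. OCI-Ly3 cells were treated 4 h with compound and doxycycline, then green and red light read after Chroma-Glo addition.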
Potency is the fitted concentration of half-maximal effect.

SMILES	IkBa stabilization activation	Potency
CCOC(=O)C1=C(c2ccccc2)NC(SCC(=O)Nc2ccc(C)cc2)=C(C#N)C1c1ccco1 (stereo not drawn)	inconclusive: 2.22% [signal inhibitor]	–
CCOc1ccc(Nc2nc3ccccc3n3c(CC)nnc23)cc1	inconclusive: 7.01% [signal inhibitor]	–
CCn1c(SCC(=O)Nc2ccc3c(c2)OCO3)nc2c1c(=O)n(C)c(=O)n2C	inactive: -2.26%	–
O=S(=O)(c1cccc(C(F)(F)F)c1)n1c(/C=C/c2ccccc2)nc2ccccc21	inactive: -1.45%	–
CCc1nc(SCc2cccnc2)c2c(=O)n(C)c(=O)n(C)c2n1	inactive: -2.85%	–
O=C(Nc1ccc(Br)cc1)C1CCN(S(=O)(=O)c2cccc3nsnc23)CC1	inactive: -5.69%	–
O=C(NCC(c1ccco1)S(=O)(=O)c1ccc(Cl)cc1)c1ccccc1F (stereo not drawn)	inconclusive: 0.866% [signal inhibitor]	–
COc1ccc(-c2nn3c(=O)cc(CN4CCN(C(=O)Nc5ccc(C)c(Cl)c5)CC4)nc3s2)cc1	inconclusive: -1.5% [signal inhibitor]	–
Nn1c(COc2cccc(Br)c2)nnc1SCC(=O)N1CCc2ccccc2C1	inconclusive: 9.37% [signal inhibitor]	–
Nc1c(-c2nc(-c3ccc(Cl)cc3)cs2)c2ccccn2c1C(=O)c1ccc2c(c1)OCO2	inconclusive: 5.97% [signal inhibitor]	–
O=S(=O)(Nc1cccc(-c2ccc(N3CCCCC3)nn2)c1)c1cccc(F)c1	inactive: -2.24%	–
CCn1c(=O)c2cc(C(=O)N3CCN(C(=O)c4ccco4)CC3)sc2c2ccccc21	inactive: -1.28%	–
CCCCc1nc2ccccc2n2c(-c3ccc(C)cc3)c3c(=O)n(C)c(=O)n(C)c3c12	inconclusive: 6.96% [signal inhibitor]	–
CSc1cccc(NC(=O)CN(c2ccccc2)S(=O)(=O)N(C)C)c1	inconclusive: 2.79% [signal inhibitor]	–
CC1CCN(S(=O)(=O)c2ccc3c(c2)N(CC(=O)NC(C)c2ccccc2)C(=O)CO3)CC1 (stereo not drawn)	inconclusive: 8.59% [signal inhibitor]	–
Cc1cc(N2CCCCC2)nc2ccc(NC(=O)c3cccc(F)c3)cc12	inconclusive: 0.371% [signal inhibitor]	–
Cc1nc(N2CCCC2)c2c(C(=O)N3CCN(c4cccc(Cl)c4)CC3)c(C)oc2n1	inconclusive: 3.53% [signal inhibitor]	–
C=Cc1ccc(CSc2nc(-c3ccccc3Cl)nc3c2Cc2c(CO)cnc(C)c2O3)cc1	inconclusive: -1.06% [signal inhibitor]	–
O=c1cnc2cnc(Nc3ccccc3)nc2n1C[C@H]1CCCO1	inconclusive: -12.1% [signal inhibitor] [at 11.4 µM, scaled: untreated 0%, proteasome inhibitor 100%]	–
CCN(c1ccccc1)c1nnc(NC(=O)Nc2cccc(Br)c2)s1	inconclusive: 0.764% [signal inhibitor]	–
O=C1CC(c2nc3ccccc3n2CCCOc2ccccc2)CN1c1ccc(F)cc1 (stereo not drawn)	inconclusive: -0.442% [signal inhibitor]	–
COCCCNC(=O)CSc1c2c(nc3ccc(Cl)cc13)CCCC2	–	inconclusive: 25.1 µM [rising, partial curve]

SMILES	IkBa stabilization activation	Potency
O=c1c(-c2ccccc2)nc2cnc(Oc3ccccc3)nc2n1C1CC1	inactive: -0.799% [at 11.4 µM, scaled: untreated 0%, proteasome inhibitor 100%]	–
CC(=O)C1=C(C)NC(SCC(=O)c2cc(Cl)ccc2Cl)=C(C#N)C1c1ccco1 (stereo not drawn)	–	inconclusive: 6.31 µM [signal inhibitor, single point]
CCN(c1ccc(OC)cc1)S(=O)(=O)c1nnc(NC(=O)c2ccccc2Cl)s1	inconclusive: 1.12% [signal inhibitor]	–
Cc1ccc(CNC(=O)c2ccc(CSCc3ccc(C)cc3)o2)cc1	inconclusive: -0.635% [signal inhibitor]	–
CCCCn1c(NCc2ccccc2O)nc2ccccc21	inconclusive: 8.13% [signal inhibitor]	–
Cc1ccc(NS(=O)(=O)c2ccc3[nH]c4c(c3c2)CCCCCC4)cc1Cl	inconclusive: 1.32% [signal inhibitor]	–
CCOC(=O)c1sc(NC(=O)c2cc(CC)on2)c(C(=O)OCC)c1C	inconclusive: 5.04% [signal inhibitor]	–
Cc1c(C(=O)NCc2ccccc2)sc2nc3n(c(=O)c12)CCC3	inactive: -1.04%	–
CCC(=O)N1CCc2cc(Br)cc(S(=O)(=O)NCc3ccc(Cl)cc3)c21	inconclusive: 1.41% [signal inhibitor]	–
O=C1c2ccccc2C(=O)N1CCc1nc(-c2ccccn2)no1	–	inconclusive: 25.1 µM [signal inhibitor, partial curve]
c1ccc(Cc2nnc3sc(-c4ccco4)nn23)cc1	inactive: 3.8%	–
CC(O)CNc1nc2ccccc2n1-c1ncnc2sc3c(c12)CCC3 (stereo not drawn)	inconclusive: 1.04% [signal inhibitor]	–
CCOC(=O)c1cnc2ccc(C)cc2c1Nc1ccc(OCc2ccccc2Cl)cc1	inconclusive: 5.23% [signal inhibitor]	–
COc1ccc2oc(-c3ccc(C)c(NC(=O)c4cccnc4)c3)nc2c1	inconclusive: 1.88% [signal inhibitor]	–
CC1CCN(c2oc(-c3cccs3)nc2S(=O)(=O)c2ccc(Cl)cc2)CC1	inconclusive: 6.46% [signal inhibitor]	–
Cc1cc(C(=O)CN(Cc2ccc(F)cc2)S(=O)(=O)c2ccc3c(c2)OCCO3)c(C)n1C	inconclusive: 3.52% [signal inhibitor]	–
N#Cc1cc2c(nc1SCC(=O)N1CCCCC1)CCCC2	inactive: 0.601%	–
Cc1ccc(OCC(=O)Nc2ccc3nc(SCC(=O)N4CCCC4)sc3c2)cc1	inconclusive: 1.45% [signal inhibitor]	–
Cc1ccc(C(=O)Nc2nc3ccc(S(C)(=O)=O)cc3s2)s1	inactive: -1.98%	–
CCOC(=O)c1c(SCC(=O)Nc2nc3ccc(C)cc3s2)nc(=O)[nH]c1C	inconclusive: 2.54% [signal inhibitor]	–
Oc1ccc(Nc2nc(N3CCCC3)c3ccccc3n2)cc1	inconclusive: -2.89% [signal inhibitor]	–
